Experiment [1] addresses T1, Endogenous ORC2 (C33A cells) (human (endogenous in C33A)) (UniProt Q13416).
T1 sequence: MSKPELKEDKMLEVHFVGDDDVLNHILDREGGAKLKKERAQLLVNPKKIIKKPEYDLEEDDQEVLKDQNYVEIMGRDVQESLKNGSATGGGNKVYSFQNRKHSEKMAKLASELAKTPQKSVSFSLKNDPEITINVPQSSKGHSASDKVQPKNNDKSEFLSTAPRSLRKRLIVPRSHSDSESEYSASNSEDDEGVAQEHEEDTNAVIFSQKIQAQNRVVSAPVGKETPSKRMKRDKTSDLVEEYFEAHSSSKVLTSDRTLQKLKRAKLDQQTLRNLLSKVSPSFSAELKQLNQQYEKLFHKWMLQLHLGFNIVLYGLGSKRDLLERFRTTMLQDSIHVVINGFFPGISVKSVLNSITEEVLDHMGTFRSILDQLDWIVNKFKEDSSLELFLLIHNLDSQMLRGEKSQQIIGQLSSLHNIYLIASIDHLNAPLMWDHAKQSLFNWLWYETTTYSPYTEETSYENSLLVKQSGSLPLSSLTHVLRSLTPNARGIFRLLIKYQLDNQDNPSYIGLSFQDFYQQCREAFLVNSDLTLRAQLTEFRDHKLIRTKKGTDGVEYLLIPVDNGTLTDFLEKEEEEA
Put plainly: proximity ligation; in-situ PLA (PLA Red kit, Olink) in transfected C33A cells, fixed 24 h after transfection in 4% paraformaldehyde; primary antibody pairs rabbit FLAG + mouse anti-human ORC2, or M2 FLAG + rabbit 16E1.

By UniProt entry, the sequences of proteins in these tests, tags left out.
UniProt P17383: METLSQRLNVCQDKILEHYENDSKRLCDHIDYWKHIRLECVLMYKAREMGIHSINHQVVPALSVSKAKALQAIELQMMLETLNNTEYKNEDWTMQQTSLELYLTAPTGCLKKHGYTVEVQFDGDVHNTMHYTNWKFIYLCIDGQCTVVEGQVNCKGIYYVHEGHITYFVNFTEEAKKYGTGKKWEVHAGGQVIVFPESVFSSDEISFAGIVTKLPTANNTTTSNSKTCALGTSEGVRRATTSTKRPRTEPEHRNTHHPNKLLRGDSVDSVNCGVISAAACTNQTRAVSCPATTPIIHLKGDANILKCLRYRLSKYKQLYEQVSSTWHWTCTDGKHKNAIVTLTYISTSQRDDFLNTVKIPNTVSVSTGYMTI

Experiment [2] concerns the target T2, HA-tagged human ORC2 (HA-hORC2) (human) (UniProt Q13416).
T2 sequence: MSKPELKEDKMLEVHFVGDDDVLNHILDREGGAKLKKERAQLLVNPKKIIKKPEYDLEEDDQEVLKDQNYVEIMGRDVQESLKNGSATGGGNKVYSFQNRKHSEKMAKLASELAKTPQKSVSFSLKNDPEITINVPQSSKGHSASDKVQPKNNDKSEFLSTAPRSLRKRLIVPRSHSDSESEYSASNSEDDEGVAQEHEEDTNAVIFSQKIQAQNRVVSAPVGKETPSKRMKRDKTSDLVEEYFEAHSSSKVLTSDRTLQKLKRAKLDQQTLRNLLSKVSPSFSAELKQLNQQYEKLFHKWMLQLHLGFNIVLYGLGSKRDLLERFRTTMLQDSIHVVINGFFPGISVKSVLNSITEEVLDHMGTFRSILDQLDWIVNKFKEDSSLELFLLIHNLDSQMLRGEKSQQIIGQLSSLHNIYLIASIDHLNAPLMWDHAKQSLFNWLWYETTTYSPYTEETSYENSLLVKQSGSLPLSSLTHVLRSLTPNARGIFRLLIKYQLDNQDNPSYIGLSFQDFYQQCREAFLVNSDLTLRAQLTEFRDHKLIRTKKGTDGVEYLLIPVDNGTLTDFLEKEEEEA
Described as above.

Experiment [3] concerns the target T2, HA-tagged human ORC2 (HA-hORC2) (human). Put plainly: co-IP; 293TT cells co-transfected; HA antibody immunoprecipitates of HA-ORC2 blotted with HA-7/ORC2 and M2/FLAG antibodies; lysis in 1% NP-40, 50 mM NaCl, 10 mM HEPES pH 7.4, 10% glycerol, benzonase; washes with 500 mM NaCl, 0.1% SDS, 1% NP-40.
Experiment [4] has as its target FLAG-HPV-31 E2 (human papillomavirus type 31 (HPV-31)) (UniProt P17383). In words: proximity ligation; in-situ PLA (PLA Red kit, Olink) in transfected C33A cells, fixed 24 h after transfection in 4% paraformaldehyde; primary antibody pairs rabbit FLAG + mouse anti-human ORC2, or M2 FLAG + rabbit 16E1.
Experiment [5] deals with BPV-1 E2 (bovine papillomavirus type 1 E2 protein), full length (bovine papillomavirus type 1 (BPV-1)) (UniProt P03122). Put plainly: co-IP; C33A cells co-transfected; BPV-1 E2 forms immunoprecipitated (II-1 or B201 antibody), blotted with B201 and M2 (FLAG); groups without full length E2 treated with 10 uM MG132 for 6 hr in Fig 1B; lysis in 1% NP-40, 50 mM NaCl, 10 mM HEPES pH 7.4, 10% glycerol, benzonase; washes with 500 mM NaCl, 0.1% SDS, 1% NP-40.

In experiment [6] the target is 6-His-BPV E2:1-216 (bovine papillomavirus type 1 (BPV-1)) (UniProt P03122). In words: pull-down; High Five lysate with human ORC2 added to purified His-tagged proteins with nickel Dynabeads in 1% NP-40, 50 mM NaCl, 10 mM HEPES pH 7.4, 10% glycerol, benzonase; blotted with E2 (B201), E6 and ORC2 antibodies; only the target purified.
Experiment [7] has as its target BPV-1 E2 transactivation domain (TAD, aa 1-216) (bovine papillomavirus type 1 (BPV-1)) (UniProt P03122). Put plainly: co-IP; C33A cells co-transfected; BPV-1 E2 forms immunoprecipitated (II-1 or B201 antibody), blotted with B201 and M2 (FLAG); groups without full length E2 treated with 10 uM MG132 for 6 hr in Fig 1B; lysis in 1% NP-40, 50 mM NaCl, 10 mM HEPES pH 7.4, 10% glycerol, benzonase; washes with 500 mM NaCl, 0.1% SDS, 1% NP-40.

The target in experiment [8] is BPV-1 E2R (aa 162-410) (bovine papillomavirus type 1 (BPV-1)) (UniProt P03122). The description is as above.

No constants are given. Whether binding was seen depends on the method and setting. Binding seen in cells or lysates may run through a third protein. Some results given as binding are weak or reduced against the parent protein; the word gives no strength. For some of these results: Sequences can lack the tags named with a protein.

As to “FLAG-HPV-31 E2 (from UniProt P17383 1-372)”, the binding result in experiment [1], in experiment [2] and in experiment [3] was “binds” each time.

B1: HA-HPV-31 E1 (protein, UniProt P17382 1-629)
chain: MADPAGTDGEGTGCNGWFYVEAVIDRQTGDNISEDENEDSSDTGEDMVDFIDNCNVYNNQAEAETAQALFHAQEAEEHAEAVQVLKRKYVGSPLSDISSCVDYNISPRLKAICIENNSKTAKRRLFELPDSGYGNTEVETQQMVQVEEQQTTLSCNGSDGTHSERENETPTRNILQVLKTSNGKAAMLGKFKELYGVSFMELIRPFQSNKSTCTDWCVAAFGVTGTVAEGFKTLLQPYCLYCHLQSLACSWGMVMLMLVRFKCAKNRITIEKLLEKLLCISTNCMLIQPPKLRSTAAALYWYRTGMSNISDVYGETPEWIERQTVLQHSFNDTTFDLSQMVQWAYDNDVMDDSEIAYKYAQLADSDSNACAFLKSNSQAKIVKDCGTMCRHYKRAEKRQMSMGQWIKSRCDKVSDEGDWRDIVKFLRYQQIEFVSFLSALKLFLKGVPKKNCILIHGAPNTGKSYFGMSLISFLQGCIISYANSKSHFWLQPLADAKIGMLDDATTPCWHYIDNYLRNALDGNPVSIDVKHKALMQLKCPPLLITSNINAGKDDRWPYLHSRLVVFTFPNPFPFDKNGNPVYELSDKNWKSFFSRTWCRLNLHEEEDKENDGDSFSTFKCVSGQNIRTL
Regarding B1, in experiment [4], the binding result is “binds”.

B2: FLAG-HPV-31 E1 (codon optimized triple FLAG HPV-31 E1) (protein, UniProt P17382 1-629)
chain: MADPAGTDGEGTGCNGWFYVEAVIDRQTGDNISEDENEDSSDTGEDMVDFIDNCNVYNNQAEAETAQALFHAQEAEEHAEAVQVLKRKYVGSPLSDISSCVDYNISPRLKAICIENNSKTAKRRLFELPDSGYGNTEVETQQMVQVEEQQTTLSCNGSDGTHSERENETPTRNILQVLKTSNGKAAMLGKFKELYGVSFMELIRPFQSNKSTCTDWCVAAFGVTGTVAEGFKTLLQPYCLYCHLQSLACSWGMVMLMLVRFKCAKNRITIEKLLEKLLCISTNCMLIQPPKLRSTAAALYWYRTGMSNISDVYGETPEWIERQTVLQHSFNDTTFDLSQMVQWAYDNDVMDDSEIAYKYAQLADSDSNACAFLKSNSQAKIVKDCGTMCRHYKRAEKRQMSMGQWIKSRCDKVSDEGDWRDIVKFLRYQQIEFVSFLSALKLFLKGVPKKNCILIHGAPNTGKSYFGMSLISFLQGCIISYANSKSHFWLQPLADAKIGMLDDATTPCWHYIDNYLRNALDGNPVSIDVKHKALMQLKCPPLLITSNINAGKDDRWPYLHSRLVVFTFPNPFPFDKNGNPVYELSDKNWKSFFSRTWCRLNLHEEEDKENDGDSFSTFKCVSGQNIRTL
On to B2, for which the binding result in experiment [3] was “no binding”.

B3: FLAG-mouse ORC1 (protein, UniProt Q9Z1N2 1-840)
chain: MPSYLTRQKTRQTFSWVGRPLPNRKQFQQMYREICMKINDGSEIHIKVGQFVLIQGEDNKKPYVAKLIELFQNGAEVPPKKCARVQWFVRFLEIPVSKRHLLGRSPPAQEIFWYDCSDWDNKINVETIIGPVQVVALAPEEVIPVDQKSEETLFVKLSWNKKDFAPLPPEVLAALREQEDSPEWQKPLKAKIKNVKSPARNTTEQEVKGIKSNHSTSKFHQTPANIVIPNAKKSLELDGLGFTRKPNTRWSKKSSCDSLDYQKTSKRRAAFSETTSPPKKPNKPREIKPSSALETRVKNGQTQPFCAKSSVVLRARNPAMTTTKLGVDNTLSPIRNGLRSSVVPSGGLTPVYIRRKAKEQETHKEPIRTSRVHRKSSLLTLKRIRQQLCLLDGDDRDQEEEESVDSESEEEDEFISSLPTRNSLGQSRTRQTPSKSPQKNPKPRTPHRATPQIRDRNLAVQEPASALEEARLRLHVSAVPDSLPCREQEFQDIYSFVESKLLDGTGGCMYISGVPGTGKTATVHEVIRCLQQAAETDDVPPFQYVEVNGMKLTEPHQVYVQILKKLTGQKATANHAAELLAKQFCGQGSQKETTVLLVDELDLLWTHKQDVMYNLFDWPTHKGAHLIVLTIANTMDLPERIMMNRVSSRLGLTRMSFQPYSHSQLKQILVSRLRNLRAFEDDAIQLVARKVAALSGDARRCLDICRRATEICELSHLRGDSLSLVTVAHLMEAIDEMFSSSYITAIKNSSVVEQSFLRAIIAEFRRSGLEEATFQQIYSQHVALCRMEGLPYPTMSETMAVCSRLGSCRLLLVEPSRNDLLLRVRLNVSQNDVLFALKEE
For B3, in experiment [5], the binding result is recorded as “no binding”.

B4: Human ORC2 protein (baculovirus expressed) (protein, UniProt Q13416 1-577)
chain: MSKPELKEDKMLEVHFVGDDDVLNHILDREGGAKLKKERAQLLVNPKKIIKKPEYDLEEDDQEVLKDQNYVEIMGRDVQESLKNGSATGGGNKVYSFQNRKHSEKMAKLASELAKTPQKSVSFSLKNDPEITINVPQSSKGHSASDKVQPKNNDKSEFLSTAPRSLRKRLIVPRSHSDSESEYSASNSEDDEGVAQEHEEDTNAVIFSQKIQAQNRVVSAPVGKETPSKRMKRDKTSDLVEEYFEAHSSSKVLTSDRTLQKLKRAKLDQQTLRNLLSKVSPSFSAELKQLNQQYEKLFHKWMLQLHLGFNIVLYGLGSKRDLLERFRTTMLQDSIHVVINGFFPGISVKSVLNSITEEVLDHMGTFRSILDQLDWIVNKFKEDSSLELFLLIHNLDSQMLRGEKSQQIIGQLSSLHNIYLIASIDHLNAPLMWDHAKQSLFNWLWYETTTYSPYTEETSYENSLLVKQSGSLPLSSLTHVLRSLTPNARGIFRLLIKYQLDNQDNPSYIGLSFQDFYQQCREAFLVNSDLTLRAQLTEFRDHKLIRTKKGTDGVEYLLIPVDNGTLTDFLEKEEEEA
On to B4, for which, in experiment [6], the binding result is “binds”.

B5: FLAG-mouse ORC2 (protein, UniProt Q60862 1-576)
chain: MSTLQLKETKVPSVQFVGDDDVLSHILDREGGTKLKKEKAQLLVNPQKVIKKADCELEKSDLEVLEDQNYVKVLGRNIQESLGNGSAKDGRNKVYSFQQRKHPEEMTKLALELAKTSGKKDPLDSNDPEITKNIAQKSKGHSTSEKAPLVNNNKTEFLSTQPHNLRKRIIASRSHYDSESEYSASSSEDDEEATKDEEEDTNVARLSQKSQGQNRLLPAPVSKETLPKKKKRDKASDLVEEYFEAHSSSKVLTSDRTLQRLRRARVDQKTLHNLLRKFVPSFSAEIERLNQQHEKLFHKWMLQLHLGFNIVLYGLGSKRDLLEKFRTTMLQDSIHVVINGYFPGVSVKSILNSITEDVLSHVGTFQSVLDQRDWIINRFKEDSSLELFLLIHNLDSQMLRGDNSQQILGQLSSLHNVYLIASIDHLNAPLMWDHAKQSLYNWLWYETTTYSPYTEETSYENSLLVKQSGSLPLSSLIHVLRSLTPNARGIFRLLMKFQLDNQDSPSYIGLSFQDFYQQCREAFLVNSDLTLRAQLTEFRDHKLIRTKKGTDGVEYLLIPVDSGILADFLEKEEEEA
Consider B5, for which the binding result in experiment [5] is “binds”; in experiment [7] it was “binds”; in experiment [8] it was “no binding”.

Source of the values: PMC5049798.
